Experimental data reported in PubChem BioAssay AID1240 (Sanford-Burnham Center for Chemical Genomics, 2008).
“And” between values parts separate entries of the source, which are not always exact repeats. Equal values may be shown once. Among all 50,000 compounds or so, about 800 (1.6%) showed an effect of 50% or more. The list shows a part of the results.

Molecular target: Bcl-2-like protein 10 (Homo sapiens) (UniProt Q9HD36)
Experiment: Phenotype converters, Bcl-B/TR3 peptide binding displacement, primary biochemical FP (AID 1240);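 note: 0% = Bcl-B with tracer peptide and DMSO and 100% = tracer peptide lacking Bcl-B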
Conditions: GST-Bcl-B / FITC-TR3 peptide fluorescence polarization; stronger effect = higher value; compound at 3.75 mg/L

Chain of UniProt Q9HD36 (Q9HD36 whole entry, looked up): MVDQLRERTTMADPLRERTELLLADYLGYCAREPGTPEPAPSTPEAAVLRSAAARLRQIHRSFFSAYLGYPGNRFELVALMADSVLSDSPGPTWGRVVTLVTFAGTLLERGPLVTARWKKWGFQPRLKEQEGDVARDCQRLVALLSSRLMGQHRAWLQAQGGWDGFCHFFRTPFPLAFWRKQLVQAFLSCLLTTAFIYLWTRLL

| Structure (SMILES) | displacement |
| --- | --- |
| NC(=O)CN1C(=O)/C(=C2\SC(=S)N(Cc3ccccc3)C2=O)c2ccccc21 | 8.3% |
| COc1cccc(N(CC(=O)Nc2ccc3ccccc3c2)S(=O)(=O)c2ccccc2)c1 | -5.8% |
| COc1cc(C=Nc2ccc(Oc3ccc(N=Cc4ccc(O)c(OC)c4)cc3)cc2)ccc1O | -4.1% |
| COc1cccc(C2/C(=C(\O)c3ccccc3)C(=O)C(=O)N2Cc2cccnc2)c1 (stereo not drawn) | 8.1% |
| O=C1OC(c2ccccc2F)=N/C1=C\c1ccccc1[N+](=O)[O-] | 4.1% |
| CCc1nc2c(c(=O)[nH]1)C1(CCCC1)Cc1ccccc1-2 | -9.9% |
| Cc1ccc(/C=C/C(=O)NCCc2ccccc2)o1 | 22% |
| O=C(c1ccc(N2CCN(C(=O)c3ccccc3)CC2)cc1)c1cccc(F)c1 | -11.7% |
| COc1ccc(OC)c(/C=C2\C(=O)NN(c3ccccc3)C2=O)c1 | 11.5% and 10% |
| CCOc1ccccc1NC(=O)c1c(NC(=O)c2ccccc2)sc2c1CCC(C)C2 (stereo not drawn) | -7.2% |
| CN(C)CCCOC(=O)c1ccccc1 | 11.2% |
| Cc1cccc(N(CC(=O)NCCSc2nc3ccccc3s2)S(=O)(=O)c2ccccc2)c1 | 9.1% |
| COc1cccc(N2C(=O)C(=O)/C(=C(\O)c3ccccc3)C2c2ccc(O)c(OC)c2)c1 (stereo not drawn) | 10.1% |
| COC(=O)C1=C(C(=O)OC)SC(=C2C(=S)C(C)(C)N(C(=O)c3cccc([N+](=O)[O-])c3)c3ccc(OC)cc32)S1 | -4.6% |
| COC(=O)c1cc(NC(=O)C2CCCC2)cc(C(=O)OC)c1 | -10.4% |
| Cc1ccc(S(=O)(=O)Nc2ccccc2C(=O)NCc2ccco2)cc1 | 9.3% |
| CC(=O)C1=C(O)C(=O)N(CCN(C)C)C1c1ccc(O)cc1 (stereo not drawn) | -4.8% |
| CCCn1nc(CC(=O)O)c2ccccc2c1=O | 4.4% |
| O=C(Nc1ncc(Cc2ccc(Cl)c(Cl)c2)s1)c1cccc([N+](=O)[O-])c1 | 5.9% |
| Cc1cccc(C(=O)N2N=C(c3ccc(Cl)cc3)CC2(O)C(F)(F)F)c1O (stereo not drawn) | 4.8% |
| CC1=C(C(=O)OCc2ccccc2)C(c2ccc([N+](=O)[O-])cc2)C2=C(CC(C)(C)CC2=O)N1 (stereo not drawn) | -4.7% |
| COc1ccc(CCN2C(=O)CC(Cc3ccc(Cl)cc3)C2=O)cc1OC (stereo not drawn) | -19.7% |

| Structure (SMILES) | displacement |
| --- | --- |
| COc1cccc(NC(=O)CN(c2ccc(Br)cc2)S(C)(=O)=O)c1 | 3.1% |
| COc1cc(/C=C2/C(=O)NN(c3ccc(Br)cc3)C2=O)c([N+](=O)[O-])cc1OC | 14.7% |
| O=C1C2C3C=CC(C3)C2C(=O)N1Nc1ccccc1 (stereo not drawn) | -0.8% |
| COC(=O)c1cccc(NC(=O)CCOc2ccccc2)c1 | 18.5% |
| CCn1c(C)nc2c(CN(C)C)c(O)ccc21 | -16.2% |
| O=C(COc1ccccc1Cl)NNC(=O)c1ccncc1 | -9.4% |
| NC(=O)C1CCN(S(=O)(=O)c2ccc([N+](=O)[O-])cc2)CC1 | -3.8% |
| CC(=O)Nc1ccc(S(=O)(=O)Nc2cccc(-c3nc4ccccc4[nH]3)c2)cc1 | 2% |
| Cc1cc(/C=C2/NC(=O)NC2=O)c(C)n1-c1ccc(C(C)(C)C)cc1 | 10.4% |
| CCOc1ccc2c(=O)c(Oc3ccc(OC)cc3)c(C(F)(F)F)oc2c1 | 10.5% |
| NC1=NC(=O)/C(=C\c2ccc(-c3ccccc3Cl)o2)S1 | 10.4% |
| N#Cc1c2n(c3c(=O)n(CC(=O)c4ccccc4)cnc13)CCCCC2 | 0.3% |
| O=C(O)CCC(=O)N(CCc1ccccc1)C1CC(=O)N(c2ccc(Br)cc2)C1=O (stereo not drawn) | -10.1% |
| Cc1ccc(NC(=O)CN2CCOCC2)c(C(=O)c2ccccc2)c1 | 14.6% |
| O=C(COc1ccccc1)Nc1ccc([N+](=O)[O-])cc1 | 14.1% |
| COc1ccc(C(=O)Nc2ccc3nn(-c4ccc(F)cc4)nc3c2)cc1Br | -0.2% |
| O=C(Cc1ccc(Cl)cc1)NNC(=O)c1ccco1 | 2.8% |
| O=[N+]([O-])c1cc(Br)c2nsnc2c1N1CCOCC1 | 5.9% |
| O=C(CSc1nc(O)cc(=O)[nH]1)c1ccc(O)cc1O | 3.2% |
| Cc1ccc[n+](CC(=O)c2cc3ccccc3oc2=O)c1 | 7.9% |
| O=C(/C=C/c1cccc(C(F)(F)F)c1)Nc1ccc(F)cc1 | 14.9% |
| COc1ccc(N2C(=O)/C(=C/c3ccc(-c4ccc([N+](=O)[O-])c(C)c4)o3)SC2=S)cc1 | 3.3% |

| Structure (SMILES) | displacement |
| --- | --- |
| O=C(Nc1cccc(Cl)c1)N(c1ccccn1)c1ccccn1 | 2.4% |
| CN1C(=O)N(C)C2(c3ccccc3)N(C)C(=O)N(C)C12c1ccccc1 (stereo not drawn) | -4.8% |
| Cn1c(/C=C/c2ccc(Br)cc2)nc2ccccc2c1=O | -5.9% |
| CCOC(=O)N=Nc1c(O)[nH]c2ccc(OC)cc12 | -3.6% |
| CCc1nc(C)cn1S(=O)(=O)c1ccc(Cl)c([N+](=O)[O-])c1 | 16.9% |
| O=C(CC(=O)c1ccccc1O)c1ccco1 | 1.2% |
| O=C(CCc1ccccc1)Nc1nc(-c2cccc3ccccc23)cs1 | 16.4% |
| CC(=O)Oc1ccccc1/C=C1\C=C(c2ccc(Br)cc2)OC1=O | 12% |
| Cc1ccccc1NC(=O)C(=O)NNC(=O)c1ccc(Cl)cc1 | -5.9% |
| O=C(CN(c1ccc(F)cc1)S(=O)(=O)c1ccccc1)NCCc1ccccc1 | 0% |
| O=C1NC(=O)N(c2ccc(Cl)cc2)C(=O)/C1=C/c1cc(Cl)c(O)c(Cl)c1 | -0.3% |
| CC1(C)CC(=O)c2sc(NC(=O)/C=C/c3ccco3)nc2C1 | -13.5% |
| Cc1ccc(-c2csc(NC(=O)CCc3ccccc3)n2)cc1 | 9.7% |
| COc1ccc(C2/C(=C(\O)c3ccccc3)C(=O)C(=O)N2CCCCCC(=O)O)c(OC)c1 (stereo not drawn) | -6.6% |
| O=C1N=C(N2CCCCC2)S/C1=C\c1cccc(O)c1 | -5.3% |
| CN(C)CCCNC(=O)C(F)(F)C(F)(F)C(F)(F)C(F)(F)C(F)(F)Cl | 17.4% |
| CCOc1ccc(NCC(=O)N/N=C/c2c[nH]c3ccccc23)cc1 | 4.3% |
| Cc1cccc(C)c1NC(=O)CCCOc1ccccc1 | 5% |
| Cc1cc(C(=O)Nc2ccc(N(C)C)cc2)ccc1[N+](=O)[O-] | 11.2% |
| COc1cccc(-c2nc(-c3ccc4c(c3)-c3ccccc3S4(=O)=O)c(-c3ccccc3)[nH]2)c1OC | 7.7% |
| COc1ccccc1-n1cnc2nc[nH]c(=O)c21 | 5.1% |
| CC1=NN(c2nc(-c3ccccc3)cc(-c3ccc(C)cc3)n2)C(=O)C1 | 3.2% |

| Structure (SMILES) | displacement |
| --- | --- |
| O=C(N=Nc1c(O)[nH]c2ccc(Br)cc12)c1ccc(Cl)cc1Cl | 6.7% |
| CS(=O)(=O)N(CC(=O)Nc1ccc(Cl)cc1)c1cccc(Cl)c1 | 3% |
| CC1CCN(CCOCCOc2ccc(F)cc2)CC1 | 7.4% |
| O=C(/C=C/c1ccco1)Nc1ccccc1[N+](=O)[O-] | 13.2% |
| Cc1cc(OCC(=O)Nc2ccccc2C(N)=O)cc(C)c1Cl | -5.2% |
| CCN(CC)CC(=O)Nc1c(-c2ccccc2)c2cc(Br)ccc2[nH]c1=O | -22% |
| COC(=O)C1=C(C)NC(=O)/C1=C\c1ccc(F)cc1 | 3% |
| COc1cc2c(C)[nH]c(=O)c(CC(=O)Nc3ccccc3)c2cc1OC | 41.5% |
| C=CCOc1ccc(/C=C2/C(=O)N(c3ccccc3)N=C2C)cc1OCC | 4.7% |
| O=C1CCC(=O)N1Cc1ccc(Cl)cc1 | -5% |
| Cc1cccc(OCCCN2CCCC2)c1C | -2.2% |
| Cc1ccc(-n2c(=O)c3c4c(sc3n3c(=S)[nH]nc23)CCCC4)cc1 | 5.9% |
| O=C1CC(c2cccs2)c2ccc3ccccc3c2N1 (stereo not drawn) | 4.6% |
| O=C1C(=O)N(c2nncs2)C(c2cccc(Br)c2)/C1=C(\O)c1ccc(F)cc1 (stereo not drawn) | 16.6% |
| O=C(Nc1cccc(O)c1)/C(=C/c1cccc([N+](=O)[O-])c1)NC(=O)c1ccccc1 | 2.8% |
| Cc1cc(C)c(COCc2c(C)cc(C)c(C=O)c2C)c(C)c1C=O | -10.3% |
| COc1ccc(/C=C2\N=C(c3cccc(OC)c3)OC2=O)cc1 | -1.7% |
| CCC(C)C(NC(=O)c1cc(C)oc1C)C(=O)O (stereo not drawn) | 12.5% |
| CCOc1ccc(S(=O)(=O)N2CCC(C)CC2)c2ccccc12 | 3.7% |
| O=C(Nc1ccc2c(c1)Cc1ccccc1-2)c1ccncc1 | -3.2% |
| CC(=O)N(C)C1=C(Cl)C(=O)c2ccccc2C1=O | 16.2% |
| COC(=O)c1ccccc1-c1ccc(/C=C2/SC(=S)N(Cc3ccccc3)C2=O)o1 | 21% |

| Structure (SMILES) | displacement |
| --- | --- |
| Cc1ccc(OCC(=O)Nc2cccc(I)c2)cc1 | 8.2% |
| COc1ccc(/C=C2\SC(=O)N(CCC(=O)N3CCOCC3)C2=O)cc1OC | -3.1% |
| Cc1cccc(C(=O)NNC(=O)COc2cccc3ccccc23)c1O | -15.8% |
| Cc1cc(C)c(C(=O)/C(=C/c2cccs2)c2ccccc2)c(=O)[nH]1 | 2.6% |
| O=C(NNC(=O)C1CCCO1)c1ccc(F)cc1 (stereo not drawn) | -25.5% |
| CCCN1C(=O)c2ccccc2NC1c1ccc(-c2ccccc2[N+](=O)[O-])o1 (stereo not drawn) | 2.1% |
| CC1=NN(c2ccccc2)C(O)(C(F)(F)F)C1 (stereo not drawn) | 5.7% |
| CCOC(=O)C(CCOc1ccc(Cl)c(C)c1)C(=O)OCC | -7.7% |
| Cc1ccccc1OCC(=O)Nc1ccc(I)cc1Cl | 9.5% |
| NS(=O)(=O)c1cccc(NC(=O)/C=C/c2ccccc2)c1 | 5.1% |
| COc1ccc(C2CC(=O)C3=C(C2)Nc2ccccc2NC3c2ccc(O)c([N+](=O)[O-])c2)cc1OC (stereo not drawn) | 11.7% |
| CN1C(C)(C)CC(OC(=O)c2ccccc2C(=O)OC2CC(C)(C)N(C)C(C)(C)C2)CC1(C)C | -0.4% |
| COc1ccc(C(=O)N2CCN(Cc3ccc(SC)cc3)CC2)cc1OC | -0.9% |
| CCCCOc1ccc(C(=O)NCCOc2ccccc2Cl)cc1 | 11.2% |
| COc1ccc(OC)c(NC(=O)c2ccc(OCC(C)C)cc2)c1 | 12.1% |
| O=C(N/N=C/c1c[nH]c2ccc(Br)cc12)c1ccccc1O | -0.2% |
| Cc1onc(-c2ccccc2Cl)c1C(=O)Nc1ccc(Oc2ccccc2)cc1 | 3.4% |
| CCOC(=O)c1c(NC(=O)COc2ccccc2)sc(C(=O)Nc2ccccc2F)c1C | -4.9% |
| CCOc1ccc(-n2nc3ccc(NC(=O)c4cc(Cl)ccc4OC)cc3n2)cc1 | 7.5% |
| Cc1cccc(/C(N)=N/OC(=O)c2ccccc2Br)c1 | 2.2% |
